Structures are written as SMILES. In all, about 48,000 compounds went through this assay and about 1,200 (2.5%) were called active. Not shown: some 2% with an inconclusive outcome.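 The calls were made as follows: active = activation of at least 60% and not above a set upper limit (about 1 call in 100 departs from these limits); inconclusive = activation of 40% to 60%, or above that upper limit; inactive = activation under 40%.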 The list shows a part of the results.

The test addresses Probable G-protein coupled receptor 32 (Homo sapiens) (UniProt O75388). Kind of test: qHTS for Agonists of Human Resolvin D1 Receptor DRV1. To be noted: CHO-K1 GPR32 beta-arrestin PathHunter luminescence, 90 min; at 76.9 µM; stronger effect = higher value; zero percent set by DMSO-only wells. The essentials: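 Beta-arrestin recruitment read-out: luminescence from complemented beta-Gal in CHO-K1 GPR32 PathHunter cells, measured 1 h after detection reagent at ambient temperature following 90 min compound exposure at 37 °C; DMSO served as basal (EC0) control.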
Sequence of UniProt O75388 (O75388 whole entry, looked up): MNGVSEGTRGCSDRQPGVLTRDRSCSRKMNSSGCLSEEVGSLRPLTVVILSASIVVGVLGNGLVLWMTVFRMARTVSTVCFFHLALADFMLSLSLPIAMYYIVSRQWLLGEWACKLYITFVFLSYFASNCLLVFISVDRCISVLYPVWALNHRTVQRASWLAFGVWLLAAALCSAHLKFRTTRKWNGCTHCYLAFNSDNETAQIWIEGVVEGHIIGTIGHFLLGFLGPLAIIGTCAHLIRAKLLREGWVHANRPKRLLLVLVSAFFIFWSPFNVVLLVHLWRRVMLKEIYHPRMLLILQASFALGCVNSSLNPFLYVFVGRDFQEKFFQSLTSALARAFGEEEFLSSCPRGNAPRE
(In general: qHTS replaces the single test concentration by a dilution series.)
`Cc1ccc(C)c(NC(=O)/C(C#N)=C/c2ccc(C(C)C)cc2)c1`: the activation is inactive: 20.6%.

As for `COc1ccc(C)cc1NC(=O)c1oc2ccc(S(=O)(=O)N3CCC4(CC3)OCCO4)cc2c1C`, the activation is inactive: -14.9%.

For the compound `CC(N)C12CC3CC(CC(C3)C1)C2` (centres undefined), the activation is inactive: 13.4%.

As to `CCOc1ccc(C2C(C(=O)Nc3ccccc3C)=C(C)Nc3nnnn32)cc1` (centres undefined), the activation was inactive: 28%.

As to `CC(C)N(C(=O)Cn1cc(SCC(=O)Nc2ccccc2C(F)(F)F)c2ccccc21)C(C)C`, the activation is inactive: -13.2%.

Turning to `CCCCc1ccc2nc(NC(=O)OC)[nH]c2c1`, the activation was inactive: 14.7%.

`COc1ccc(-c2nc(SCCOc3ccccc3Cl)n3[nH]c(=O)cc3n2)cc1`: the activation was inactive: 24.3%.

Take `Cc1cc(C(=O)NCc2ccccc2Cl)c2c(C)nn(-c3ccccc3)c2n1`: the activation is inactive: -14.1%.

For the compound `COc1cc(NC(=O)CSc2ncccc2C(=O)OC(C)C)cc(OC)c1`, the activation was inactive: -0.309%.

Take `COc1ccc(CCNC(=O)CS(=O)Cc2nc(-c3ccccc3F)oc2C)cc1OC` (centres undefined): the activation is inactive: 4.45%.

As for `CCN1C(C(=O)c2ccccc2)=C(OC(=O)c2ccccc2OC)c2ccccc2S1(=O)=O`, the activation is inactive: -30.6%.

In the case of `CC(=O)c1cc2c(cc1N/C(=N/S(=O)(=O)c1ccc(C)cc1)c1ccc(F)cc1)OCO2`, the activation was inactive: -21.7%.

With `O=S1(=O)c2ccccc2N(Cc2cccc(Cl)c2)c2ccccc21`, the activation was inactive: -24.2%.

Regarding `COc1cccc(CNC(=O)C2CCN(c3nnc(-n4c(C)ccc4C)s3)CC2)c1OC`, the activation is inactive: -21.9%.

Turning to `CCOc1ccc(-c2nc(CSCC(=O)NCc3ccc(Cl)cc3)c(C)o2)cc1`, the activation was inactive: -2.17%.

On to `CCN(CC)CCNC(=O)c1ccc2c(=O)n3nc(Nc4ccccc4OC)sc3nc2c1`, for which the activation was inactive: 49.4%.

Take `Cc1c(C(=O)N2CCN(c3ccccc3)CC2)sc2nc3n(c(=O)c12)CCC3`: the activation was inactive: -5.39%.

For `CC(C)CCNC(=O)CN1C(=O)CSc2ccc(S(=O)(=O)N3CCCCC3)cc21`, the activation is inactive: -16.2%.

In the case of `COc1ccc(CCNC(=O)c2ccc3c(c2)ncn3-c2ccc(C)cc2C)cc1OC`, the activation was inactive: -1.27%.

As to `CCc1ccc(S(=O)(=O)c2nnn3c2nc(NC(C)C)c2sccc23)cc1`, the activation is inactive: -11.1%.

Consider `CCOC(=O)c1c(-c2ccc(C)cc2)csc1NC(=O)c1nc(SC(C)C)ncc1Cl`, for which the activation was inactive: 1.6%.

Take `CCc1ccccc1NC(=O)C1CCCN(C(=O)c2cnn(-c3ccccc3)c2-n2cccc2)C1` (centres undefined): the activation was inactive: 35.1%.

Turning to `Cc1ccc(NC(=O)c2ccc(-n3c(C)nnc3C)cc2)cc1F`, the activation was inactive: -1.09%.

Take `COc1ccc(S(=O)(=O)N2CCN(Cc3nc4ccc(C)cc4o3)CC2)cc1Cl`: the activation is inactive: -12.1%.

As for `CCC(C(=O)NCCc1ccccc1)n1nc(C)n2c(cc3sccc32)c1=O` (centres undefined), the activation was inactive: -8.9%.

Consider `CCCc1nc(SCc2cc(=O)c3ccc(C)c(C)c3[nH]2)n[nH]1`, for which the activation was inactive: -1.94%.

On to `CCc1cc2c(cc3c(=O)n(CC(=O)NC4CCC(C)CC4)ncn32)s1` (centres undefined), for which the activation was inactive: -8.79%.

On to `Cc1ccc(-c2cc(C(F)(F)F)n3nc(C(=O)NCC45CC6CC(CC(C6)C4)C5)cc3n2)cc1`, for which the activation is inactive: -9.03%.

Regarding `CCOc1ccc(N2CC(NC(=O)c3ccc(S(=O)(=O)N4CCCCC4)cc3)CC2=O)cc1` (centres undefined), the activation is inactive: 11.6%.

`CCOc1ccccc1NC(=O)c1c(NC(=O)c2cccc(C)c2)sc2c1CCC2`: the activation was inactive: -16.6%.

Turning to `COc1cc(OC)c(NS(=O)(=O)c2ccc3c(c2)CCCN3C(C)=O)cc1Cl`, the activation is inactive: 33%.

In the case of `COc1cc2nc(NCc3ccc(C)cc3)n3nc(-c4ccccc4)nc3c2cc1OC`, the activation is inactive: -2.79%.

As for `Cc1ccc(NC(=O)CSc2nc3ccccc3nc2N2CCOCC2)cc1`, the activation was inactive: -14.1%.

As for `CCOc1ccccc1NC(=O)Cn1c(=O)ccc2cc(S(=O)(=O)N3CCCC3)ccc21`, the activation is inactive: 0.541%.

On to `CC(=O)N1CCc2nc3sc(C(=O)Nc4ccc(Cl)cc4F)c(N)c3c(C(F)(F)F)c2C1`, for which the activation was inactive: -2.66%.

`CC(Oc1ccccc1)C(=O)Nc1nnc2n1CCS2` (centres undefined): the activation is inactive: -22.7%.

Turning to `COc1cc(-c2nc3nc(C)cc(C)n3c2Nc2ccc(Cl)cc2)ccc1O`, the activation is inactive: -26.3%.

`O=C(c1cc2ccc3cccnc3c2[nH]1)N1CCN(c2ccccc2)CC1`: the activation is inactive: -21%.

As to `COC(=O)c1cccc(-n2c(CCC(=O)O)ccc2-c2cccs2)c1`, the activation was inactive: -6.34%.

In the case of `CCOC(=O)c1ccc2ncc3c(-c4ccccc4)nn(-c4ccc(F)c(Cl)c4)c3c2c1`, the activation is inactive: -0.211%.

`CC(C)c1nc2ccc(C(=O)NC(C)c3ccccc3)cc2o1` (centres undefined): the activation is inactive: 21.4%.

Turning to `O=C(NC1CCCC1)c1ccc(CSc2nc3cccnc3n2Cc2ccc(F)cc2)cc1`, the activation is inactive: -3.89%.

With `CCc1ccccc1N1CC(c2nc3ccccc3n2CCCCOc2ccccc2)CC1=O` (centres undefined), the activation is inactive: 28.6%.

Consider `COc1cccc(/C=C/C(=O)Nc2ccc3nc(N4CCN(C)CC4)cc(C)c3c2)c1OC`, for which the activation is inactive: -11.5%.

`CCCn1c2ccccc2c2cnn(CC(=O)N(CCCOC)Cc3ccco3)c(=O)c21`: the activation is inactive: 46.7%.

For `Oc1ccccc1-c1nc(/C=C/c2ccc(F)cc2)nn1-c1ccccc1`, the activation is inactive: -29.6%.

Regarding `CC(=O)c1ccc(N2CCN(S(=O)(=O)c3ccc4c(c3)C(C)(C)C(=O)N4)CC2)cc1`, the activation was inactive: -6.45%.

Consider `CCOc1ccc(NC(=O)CSc2ncc3c(n2)-c2ccccc2N(Cc2ccccc2C)S3(=O)=O)cc1`, for which the activation was inactive: -7.38%.

With `CCOCCCNc1ncnc2onc(C)c12`, the activation was inactive: 1.39%.

As to `Cc1ccc(Cl)cc1N1CCN(S(=O)(=O)c2ccc3c(c2)CC(C)N3C(=O)C2CCC2)CC1` (centres undefined), the activation was inactive: -0.305%.

For the compound `CC(=O)c1ccc(NC(=O)c2sc(-n3nc(C)c(Cc4ccccc4)c3C)nc2C)cc1`, the activation was inactive: -13.3%.

Turning to `Cc1cccc(NC(=O)Nc2nnc(N(C)Cc3ccccc3)s2)c1`, the activation is inactive: -9.62%.

For `COc1ccc(-c2nn3c(-c4ccccc4C)nnc3c3ccccc23)cc1`, the activation is inactive: -30.1%.

In the case of `CN(C(=O)Cn1cc(S(=O)(=O)Cc2ccccc2Cl)c2ccccc21)c1ccccc1`, the activation is inactive: -18.3%.

Values taken from PubChem BioAssay AID1346428 (National Center for Advancing Translational Sciences (NCATS), 2018).
